The text below walks through data of PubChem BioAssay AID1508623 (National Center for Advancing Translational Sciences (NCATS), 2021).

Each structure is given as a SMILES string. Out of some 48,000 compounds screened, about 450 (0.94%) were called active. Not shown: some 19% with an inconclusive outcome. Calls follow the shape of the dose curve; as a rule, active = well fitted inhibition curve with a large enough effect; inconclusive = small, poorly fitted or top-dose-only effect; inactive = no such curve, though single readings can be large or run the other way. This is one part of the list.

A short description of the assay: Primary qHTS for Identification of Small Molecule Inhibitors of Huntingtin Promoter Activity. Also: nearly all actives have a fitted effect of over 50% in size. The following applies: HEK293 HTT promoter firefly luciferase reporter (activity 0% = vehicle and -100% = no light), 24 h; series mostly up to 57.5 µM; activity change, negative = inhibition: at the top concentration. The essentials: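 Firefly luciferase readout (Dual-Glo, 10 min RT) after 24 h, 37 °C compound exposure (final up to 57.5 uM) of HEK293 reporter cells cultured 24 h beforehand; PTC124 at 50 uM final as control inhibitor; activity scaled vehicle 0%, zero RLU -100%.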
In general terms: Quantitative high-throughput screening tests each substance at several concentrations.
In the case of `COc1ccc(Cn2ccc3nc(C)c(C(=O)N4CCN(c5ccc(F)cc5)CC4)cc3c2=O)cc1`, the “activity change, negative = inhibition” value is inactive: -7.65%.
The value for `Cc1ccc(Sc2c(C)nn(C(C)(C)C)c2OC(=O)CC(C)C)cc1` was inactive: -19.3%; that for `Cc1c(C(=O)OC2CCC(C)CC2)[nH]c2c1C(=O)CC(c1ccc(F)cc1)C2` (centres undefined) was inactive: -26.5%.
The value for `Cc1cccc2c(=O)cc(CSc3ccccc3NC(=O)c3cccc(Cl)c3)[nH]c12` was inactive: -1.73%; that for `Cc1ccc2nc(CSc3nnc(NC(=O)C(C)C)s3)cc(=O)n2c1` was inactive: -2.04%; that for `CCOc1ccc(-c2cc3c(=O)n(Cc4nc(-c5ccc(OCC)c(OC)c5)oc4C)ccn3n2)cc1Cl` was inactive: 5.29%.
The value for `CC(C)(C)c1[nH]cnc1C=c1[nH]c(=O)c(=Cc2ccccc2)[nH]c1=O` was inactive: -30.4% [at 116 µM].
As to `Cc1cccc(OCC(=O)Nc2c(C(=O)Nc3ccc(F)cc3)oc3ccccc23)c1`, the “activity change, negative = inhibition” value is inactive: 7.43%.
The value for `Cc1cccc(N2C(=O)CSC23C(=O)N(C)c2ccccc23)c1` (centres undefined) was inactive: -20.5%; that for `CCc1ccc(-n2nc(C)c3c(C)cc(=O)n(CC(=O)Nc4cc(Cl)ccc4OC)c32)cc1` was inactive: -18%.
For the molecule `CCOc1ccc(OCC)c(NC(=O)c2cnn(-c3ccc(F)cc3)c2-n2cccc2)c1`, the “activity change, negative = inhibition” value is inactive: -33.3%.
On to `COc1cc(NC(=O)NCCc2c(C)nn(C)c2C)cc(OC)c1OC`, for which the “activity change, negative = inhibition” value was inactive: -15.8%.
The result for `CCCN1CCN(c2nnc(-n3cccc3C(=O)Nc3ccccc3C(F)(F)F)s2)CC1` reads inactive: -17.1%.
`CC(C)(C)OC(=O)N1CCC(c2c(C(=O)N3CCN(c4cccc(Cl)c4)CC3)cnn2-c2cccc(Cl)c2)CC1`: the “activity change, negative = inhibition” value was inactive: -2.64%.
On to `CCc1ccc(NC(=O)C2CCCN(S(=O)(=O)c3ccc4[nH]c(=O)ccc4c3)C2)cc1` (centres undefined), for which the “activity change, negative = inhibition” value is inactive: -27.8%.
The result for `CCOC(=O)C1CCN(C(=O)Cn2nc(C)n3c(cc4c(OC)cccc43)c2=O)CC1` reads inactive: -19.9%; that for `COc1cccc(C(c2sc3nc(-c4ccco4)nn3c2O)N2CCC(C)CC2)c1` (centres undefined), inactive: -15.2%.
The value for `O=C(CSc1ccnc(=O)[nH]1)NCc1ccc(F)cc1` was inactive: -5.77%.
The result for `COC(=O)c1sccc1S(=O)(=O)N1CCN(c2cccc(C)c2)C(C)C1` (centres undefined) reads inactive: -15%; that for `O=C(NCc1ccccc1)C1CCN(c2ncnc3c2nc2n3CCCCC2)CC1`, inactive: 1.14%; that for `CCOC(=O)c1cccc(NC(=O)C2COc3ccc(OC)cc3C2)c1` (centres undefined), inactive: -31%.
With `Cc1ccc(CCNC(=O)C2CC(=O)N(CCc3ccc(C)cc3)C2)cc1` (centres undefined), the “activity change, negative = inhibition” value is inactive: -17.4%.
Regarding `N=c1ccn2c(n1)O[C@H]1[C@@H](O)[C@@H](CO)O[C@H]12`, the “activity change, negative = inhibition” value is inactive: 7%.
For `CCCCc1ccc(NC(=O)Cn2cnc3c(oc4ccccc43)c2=O)cc1`, the “activity change, negative = inhibition” value is inactive: 6.15%.
The value for `O=C(NCc1ccc(Cl)cc1)c1ccc2c(c1)nnn2C1CCCC1` was inactive: 10.3%; that for `COc1ccc(C)cc1NC(=O)CSc1nc(=O)n(Cc2ccco2)c2c1CCC2` was inactive: -23.6%.
The result for `Cc1ccc(-n2cc(-c3ccccc3)c3c(N4CCC(C)CC4)ncnc32)cc1Cl` reads inactive: -12.6%; that for `Cc1nc2nc(NCc3ccccc3Cl)[nH]n2c(=O)c1Cc1ccccc1`, inactive: -23.8%.
Turning to `CCOC(=O)c1cnc2c(C)cc(C)cc2c1NCCN1CCOCC1`, the “activity change, negative = inhibition” value is inactive: -30.5%.
For `O=C(Nc1ccccc1OCc1cc(=O)n2ccccc2n1)Nc1ccccc1C(F)(F)F`, the “activity change, negative = inhibition” value was inactive: 10.4%.
The result for `CCCSC1=NC2(CCN(C(=O)NC3CCCCC3)CC2)N=C1c1ccc(C)cc1` reads inactive: -11.5%; that for `Cc1ccc(C)c(OCc2nc3ccccc3n2C)c1`, inactive: 19.9%.
The result for `Cc1ccccc1NC(=O)CSc1nc2c(oc3ccccc32)c(=O)n1Cc1ccco1` reads inactive: -11%; that for `Cc1cccc(OC(=O)CSc2nnc(-c3cccs3)o2)c1C`, inactive: 0.299%.
The result for `Cc1ccc(-n2ncc(C(=O)N3CCN(c4ccccc4F)CC3)c2C2CCN(C(=O)OC(C)(C)C)CC2)cc1C` reads inactive: 3.59%; that for `CSc1ncc(Cl)c(C(=O)Nc2c(C(=O)c3ccc(Cl)cc3)oc3ccccc23)n1`, inactive: -7.71%; that for `CCOC(=O)c1c(S(=O)(=O)N2CCCC(C(=O)Nc3cccc(CC)c3)C2)c(C)n(CC)c1C` (centres undefined), inactive: 3.63%.
As to `O=C(NCCO[N+](=O)[O-])c1cccnc1`, the activity change, negative = inhibition entry was “inactive”.
Take `Cc1c(NC(=O)Cc2ccc(Cl)cc2)cccc1-c1nc2cccnc2s1`: the “activity change, negative = inhibition” value was inactive: 0.921%.
The value for `CCOc1ccc(CNC(=O)c2ccc(NC(=O)N3CCCCc4ccccc43)cc2)cc1` was inactive: -8.09%.
For the molecule `CCOC(=O)c1c(C)[nH]c(C)c1S(=O)(=O)NCC(=O)Nc1cccc(Cl)c1`, the “activity change, negative = inhibition” value was inactive: -5.48%.
In the case of `Cc1cccc(CNC(=O)Cn2nc(C)c3nn(-c4ccc(Cl)cc4)c(C)c3c2=O)c1`, the “activity change, negative = inhibition” value is inactive: -13.6%.
The result for `Cc1c(CNC2CCCCCC2)c(C(=O)O)c(C)n1Cc1cccc(Cl)c1` reads inactive: -3.32%.
The result for `Cc1ccc(Cl)c(Nc2ccccc2C(=O)O)c1Cl` reads inactive: -0.986%; that for `Cc1ccccc1Nc1c(-c2c[nH]c3ccccc23)nc2ccc(Cl)cn12`, inactive: 0.788%; that for `Cc1cc(C)cc(NC(=O)NCc2c(-n3cccc3)sc3c2CCCC3)c1`, inactive: -8.31%.
In the case of `Clc1cccc(CNCCCSc2nnnn2-c2ccccc2)c1`, the “activity change, negative = inhibition” value is inactive: -7.61%.
The value for `COC(=O)c1scc(-c2ccc(C)cc2)c1S(=O)(=O)Nc1cc(C)c(Cl)cc1OC` was inactive: -33.3%.
The value for `Cc1cccc(N2CCN(C(=O)CCS(=O)(=O)c3ccc4c(c3)CC(=O)N4C)CC2C)c1` (centres undefined) was inactive: -21.6%.
